Measured values published in patent publication US20220289791A1, “LACTATE DEHYDROGENASE INHIBITOR POLYPEPTIDES FOR USE IN THE TREATMENT OF CANCER” (UNIVERSITÉ CATHOLIQUE DE LOUVAIN, priority 2019, published 2022).
Where two headings read alike, the source gives them in different places.

Key:
LDHB subunits = test: Enzymatic assay (lactate to pyruvate, NADH fluorescence), Michaelis-Menten; type: biochemical, human
Experimental: The dehydrogenase reaction was run in the LDH1 (tetramer of LDHB) physiologically relevant lactate to pyruvate direction following the NADH fluorescence generated during lactate oxidation. The progression of the reaction was monitored as the increase of fluorescence at 340/460 nm.
The Michaelis-Menten constant determination was performed using the GraphPad prism software. Enzymatic reactions were performed in a solution containing phosphate buffer 100 mM at pH 8.3 to enhance lactate to pyruvate oxidation, EDTA 1 mM and DTT 1 mM. Final protein concentration was 7.7 nM for full length LDHB subunit and 13.5 nM for the truncated LDHB subunit (LDHBtr). For NAD^+Km determination, concentrations of lactate were set to 20 mM while co factor concentrations ranged from 1 μM to 5 mM for full length enzyme and from 50 μM to 10 mM for the truncated form. For lactate Km determination, concentrations of NAD^+ were set to 1 mM while substrate concentrations ranged from 1 μM to 40 mM for full length enzyme and from 1 mM to 40 mM for the truncated form.

[1] = MST affinity of LDHB proteins for cofactor; type: binding, human
Experimental: MST measurements were performed on a Nanotemper Monolith NT.115 instrument (Nanotemper Technologies®, GmbH) using Red-dye-NHS fluorescent labeling. Each LDH (WT or truncated) sample, purified to homogeneity, was labeled with the Monolith RED-NHS 2nd generation labeling dye according to the supplied protocol (Nanotemper Technologies®, GmbH). Measurements were performed in 50 mM Na-Phosphate pH 7.6 and 100 mM NaCl containing 0.05% Tween-20 in premium treated capillaries (Nanotemper Technologies®, GmbH). The final concentrations of either labeled protein in the assay were 100 nM. The ligands (NADH and peptides) were titrated in 1:1 dilutions following manufacturer's recommendations. All binding reactions were incubated 5′ at room temperature after loading into capillaries. Experiments were performed in triplicates using 40% LED power and medium MST power, LaserOn time was 20 sec, Laser Off time 3 sec. Linear octapeptides were evaluated for their thermophoretic pattern.

[2] = Thermal shift assay and TYCHO NT.6 stability; type: physicochemical, human
Experimental: Thermal shift assays were performed on a StepOnePlus Real-Time PCR System (Thermo Fisher Scientific®) in 96-well white plates (Roche®). Each well contained 20 μl of 5 μM protein and 5×SYPRO Orange in 50 mM sodium phosphate pH 7.6, 100 mM NaCl. Each plate was sealed with an optically clear foil and centrifuged for 1 min at 1000 rpm before performing the assay. The plates were heated from 20-99° C. at approximately 4° C./min^−1. The fluorescence intensity was measured with λex=480 nm and λem=580 nm. The melting temperature (Tm) was obtained by determining the minimum of the first derivative curve of the melt curve.

Substance: LDHBtr: LDHB subunit lacking the first N-terminal 19 amino acid residues, 6His tagged, dimeric
- Vmax Lactate (LDHB subunits; lactate to pyruvate direction): 1.11 µM/min
- Vmax NAD+ (LDHB subunits; lactate to pyruvate direction): 0.29 µM/min
- Km (LDHB subunits; lactate to pyruvate direction, read-out: Km Lactate): 6.52 mM
- Km (LDHB subunits; lactate to pyruvate direction, read-out: Km NAD+): 0.578 mM
- decrease in maximal velocity Vmax vs full-length LDHB (LDHB subunits; substrate and cofactor): 10 fold
- increase in Michaelis-Menten constant Km vs full-length LDHB (LDHB subunits; substrate and cofactor): 5 fold
- Kd [1]: 21 µM
- shift in melting temperature vs tetrameric LDHB ([2]; TYCHO NT.6): 24 °C
- shift in melting temperature vs tetrameric LDHB ([2]; thermal shift assay): 18 °C
